Test results from the supplement of paper PMC8728848.
This is one part of the list.

Key:
Test in all cases: glycan array binding signal (z-score within array); higher = stronger binding
Settings in all cases: glycan notation: IUPAC condensed, linker removed
[1] = target: Gal(b1-3)GlcNAc(a1-3)Gal(b1-4)GlcNAc
In short: (§1)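 Glycan array data came from 3228 arrays in the Consortium for Functional Glycomics database, and only arrays with an available protein sequence were kept. Glycan names were put into IUPAC-condensed notation, and columns mapping to the same glycan were averaged. The binding signal is a within-array Z-score, averaged across arrays of one protein sequence run at different concentrations or buffers and across linkers. A negative Z-score can be read as non-binding.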

[2] = target: Gal(b1-3)GlcNAc(a1-6)Gal(b1-4)GlcNAc
In short: as §1

Gal(b1-3)GlcNAc(b1-2)Man = target: Gal(b1-3)GlcNAc(b1-2)Man
In short: as §1

[3] = target: Gal(b1-3)GlcNAc(b1-2)Man(a1-3)[Gal(b1-3)GlcNAc(b1-2)Man(a1-6)]Man(b1-4)GlcNAc(b1-4)GlcNAc
In short: as §1

[4] = target: Gal(b1-3)GlcNAc(b1-2)Man(a1-3)[Gal(b1-3)GlcNAc(b1-2)Man(a1-6)]Man(b1-4)GlcNAc(b1-4)[Fuc(a1-6)]GlcNAc
In short: as §1

[5] = target: Gal(b1-3)GlcNAc(b1-2)Man(a1-3)[GlcNAc(b1-4)][Gal(b1-3)GlcNAc(b1-2)Man(a1-6)]Man(b1-4)GlcNAc(b1-4)GlcNAc
In short: as §1

[6] = target: Gal(b1-3)GlcNAc(b1-2)[Gal(b1-3)GlcNAc(b1-6)]Man(a1-6)[Gal(b1-3)GlcNAc(b1-2)Man(a1-3)]Man(b1-4)GlcNAc(b1-4)GlcNAc
In short: as §1

[7] = target: Gal(b1-3)GlcNAc(b1-3)Gal(b1-3)GlcNAc
In short: as §1

[8] = target: Gal(b1-3)GlcNAc(b1-3)Gal(b1-4)Glc
In short: as §1

[9] = target: Gal(b1-3)GlcNAc(b1-3)Gal(b1-4)GlcNAc
In short: as §1

[10] = target: Gal(b1-3)GlcNAc(b1-3)Gal(b1-4)GlcNAc(b1-2)Man(a1-3)[Gal(b1-3)GlcNAc(b1-3)Gal(b1-4)GlcNAc(b1-2)Man(a1-6)]Man(b1-4)GlcNAc(b1-4)GlcNAc
In short: as §1

[11] = target: Gal(b1-3)GlcNAc(b1-3)Gal(b1-4)GlcNAc(b1-2)[Gal(b1-3)GlcNAc(b1-3)Gal(b1-4)GlcNAc(b1-6)]Man(a1-6)[Gal(b1-3)GlcNAc(b1-3)Gal(b1-4)GlcNAc(b1-2)Man(a1-3)]Man(b1-4)GlcNAc(b1-4)[Fuc(a1-6)]GlcNAc
In short: as §1

[12] = target: Gal(b1-3)GlcNAc(b1-3)Gal(b1-4)GlcNAc(b1-3)Gal(b1-4)GlcNAc(b1-2)[Gal(b1-3)GlcNAc(b1-3)Gal(b1-4)GlcNAc(b1-3)Gal(b1-4)GlcNAc(b1-6)]Man(a1-6)[Gal(b1-3)GlcNAc(b1-3)Gal(b1-4)GlcNAc(b1-3)Gal(b1-4)GlcNAc(b1-2)Man(a1-3)]Man(b1-4)GlcNAc(b1-4)[Fuc(a1-6)]GlcNAc
In short: as §1

[13] = target: Gal(b1-3)GlcNAc(b1-3)Gal(b1-4)GlcNAc(b1-6)[Gal(b1-3)GlcNAc(b1-3)]Gal(b1-4)Glc
In short: as §1

[14] = target: Gal(b1-3)GlcNAc(b1-3)Gal(b1-4)[Fuc(a1-3)]GlcNAc
In short: as §1

[15] = target: Gal(b1-3)GlcNAc(b1-3)Gal(b1-4)[Fuc(a1-3)]GlcNAc(b1-6)[Gal(b1-3)GlcNAc(b1-3)]Gal(b1-4)Glc
In short: as §1

[16] = target: Gal(b1-3)GlcNAc(b1-3)GalNAc
In short: as §1

[17] = target: Gal(b1-3)GlcNAc(b1-6)Gal(b1-4)GlcNAc
In short: as §1

[18] = target: Gal(b1-3)GlcNAc(b1-6)GalNAc
In short: as §1

[19] = target: Gal(b1-3)GlcNAc(b1-6)[Gal(b1-3)]GalNAc
In short: as §1

Gal(b1-3)GlcNAc6S = target: Gal(b1-3)GlcNAc6S
In short: as §1

[20] = target: Gal(b1-3)[Fuc(a1-4)]GlcNAc
In short: as §1

[21] = target: Gal(b1-3)[Fuc(a1-4)]GlcNAc(b1-2)Man
In short: as §1

[22] = target: Gal(b1-3)[Fuc(a1-4)]GlcNAc(b1-2)Man(a1-3)[Gal(b1-3)[Fuc(a1-4)]GlcNAc(b1-2)Man(a1-6)]Man(b1-4)GlcNAc(b1-4)[Fuc(a1-6)]GlcNAc
In short: as §1

[23] = target: Gal(b1-3)[Fuc(a1-4)]GlcNAc(b1-3)Gal(b1-3)[Fuc(a1-4)]GlcNAc
In short: as §1

[24] = target: Gal(b1-3)[Fuc(a1-4)]GlcNAc(b1-3)Gal(b1-4)GlcNAc
In short: as §1

[25] = target: Gal(b1-3)[Fuc(a1-4)]GlcNAc(b1-3)Gal(b1-4)[Fuc(a1-3)]GlcNAc
In short: as §1

[26] = target: Gal(b1-3)[Fuc(a1-4)]GlcNAc(b1-6)GalNAc
In short: as §1

[27] = target: Gal(b1-3)[GlcNAc(b1-6)]GalNAc
In short: as §1

[28] = target: Gal(b1-3)[Neu5Ac(a2-6)]GalNAc
In short: as §1

[29] = target: Gal(b1-3)[Neu5Ac(a2-6)]GlcNAc(b1-4)Gal(b1-4)Glc
In short: as §1

[30] = target: Gal(b1-3)[Neu5Ac(a2-6)]GlcNAc(b1-6)Gal(b1-4)Glc
In short: as §1

[31] = target: Gal(b1-3)[Neu5Ac(b2-6)]GalNAc
In short: as §1

Gal(b1-4)Gal = target: Gal(b1-4)Gal
In short: as §1

[32] = target: Gal(b1-4)GalNAc(a1-3)[Fuc(a1-2)]Gal(b1-4)GlcNAc
In short: as §1

[33] = target: Gal(b1-4)GalNAc(b1-3)[Fuc(a1-2)]Gal(b1-4)GlcNAc
In short: as §1

Gal(b1-4)Glc = target: Gal(b1-4)Glc
In short: as §1

Gal(b1-4)Glc6S = target: Gal(b1-4)Glc6S
In short: as §1

Gal(b1-4)GlcNAc = target: Gal(b1-4)GlcNAc
In short: as §1

[34] = target: Gal(b1-4)GlcNAc(a1-6)Gal(b1-4)GlcNAc
In short: as §1

Gal(b1-4)GlcNAc(b1-2)Man = target: Gal(b1-4)GlcNAc(b1-2)Man
In short: as §1

[35] = target: Gal(b1-4)GlcNAc(b1-2)Man(a1-3)Man(b1-4)GlcNAc(b1-4)GlcNAc
In short: as §1

[36] = target: Gal(b1-4)GlcNAc(b1-2)Man(a1-3)[Gal(b1-4)GlcNAc(b1-2)Man(a1-6)]Man(b1-4)GlcNAc(b1-4)GlcNAc
In short: as §1

[37] = target: Gal(b1-4)GlcNAc(b1-2)Man(a1-3)[Gal(b1-4)GlcNAc(b1-2)Man(a1-6)]Man(b1-4)GlcNAc(b1-4)[Fuc(a1-6)]GlcNAc
In short: as §1

[38] = target: Gal(b1-4)GlcNAc(b1-2)Man(a1-3)[Gal(b1-4)GlcNAc(b1-2)Man(a1-6)][Gal(b1-4)GlcNAc(b1-4)]Man(b1-4)GlcNAc(b1-4)[Fuc(a1-6)]GlcNAc
In short: as §1

B1: BDCA-2 (Homo sapiens), Q8WTT0 (protein)
chain: MVPEEEPQDREKGLWWFQLKVWSMAVVSILLLSVCFTVSSVVPHNFMYSKTVKRLSKLREYQQYHPSLTCVMEGKDIEDWSCCPTPWTSFQSSCYFISTGMQSWTKSQKNCSVMGADLVVINTREEQDFIIQNLKRNSSYFLGLSDPGGRRHWQWVDQTPYNENVTFWHSGEPNNLDERCAIINFRSSEEWGWNDIHCHVPQKSICKMKKIYI
[1]
  glycan array binding signal (z-score): -0.173
[2]
  glycan array binding signal (z-score): -0.135
Gal(b1-3)GlcNAc(b1-2)Man
  glycan array binding signal (z-score): 0.157
[3]
  glycan array binding signal (z-score): 7.94
[4]
  glycan array binding signal (z-score): 1.26
[5]
  glycan array binding signal (z-score): 0.569
[6]
  glycan array binding signal (z-score): 1.74
[7]
  glycan array binding signal (z-score): -0.16
[8]
  glycan array binding signal (z-score): 0.601
[9]
  glycan array binding signal (z-score): 0.608
[10]
  glycan array binding signal (z-score): -0.163
[11]
  glycan array binding signal (z-score): -0.113
[12]
  glycan array binding signal (z-score): -0.117
[13]
  glycan array binding signal (z-score): -0.164
[14]
  glycan array binding signal (z-score): -0.159
[15]
  glycan array binding signal (z-score): -0.17
[16]
  glycan array binding signal (z-score): -0.154
[17]
  glycan array binding signal (z-score): -0.173
[18]
  glycan array binding signal (z-score): -0.172
[19]
  glycan array binding signal (z-score): -0.154
Gal(b1-3)GlcNAc6S
  glycan array binding signal (z-score): -0.162
[20]
  glycan array binding signal (z-score): -0.188
[21]
  glycan array binding signal (z-score): -0.077
[22]
  glycan array binding signal (z-score): -0.013
[23]
  glycan array binding signal (z-score): -0.167
[24]
  glycan array binding signal (z-score): 0.763
[25]
  glycan array binding signal (z-score): -0.206
[26]
  glycan array binding signal (z-score): -0.149
[27]
  glycan array binding signal (z-score): -0.09
[28]
  glycan array binding signal (z-score): -0.137
[29]
  glycan array binding signal (z-score): -0.125
[30]
  glycan array binding signal (z-score): -0.106
[31]
  glycan array binding signal (z-score): -0.135
Gal(b1-4)Gal
  glycan array binding signal (z-score): -0.157
[32]
  glycan array binding signal (z-score): 0.75
[33]
  glycan array binding signal (z-score): 2.85
Gal(b1-4)Glc
  glycan array binding signal (z-score): -0.117
Gal(b1-4)Glc6S
  glycan array binding signal (z-score): -0.144
Gal(b1-4)GlcNAc
  glycan array binding signal (z-score): -0.266
[34]
  glycan array binding signal (z-score): -0.178
Gal(b1-4)GlcNAc(b1-2)Man
  glycan array binding signal (z-score): -0.141
[35]
  glycan array binding signal (z-score): 5.76
[36]
  glycan array binding signal (z-score): 8.18
[37]
  glycan array binding signal (z-score): 3.64
[38]
  glycan array binding signal (z-score): 0.157
